Laboratory results: PubChem BioAssay AID624296 (National Center for Advancing Translational Sciences (NCATS), 2012)
In all, about 350,000 compounds went through this assay and about 9,900 (2.8%) were called active. Inconclusive means that the source gave no clear call. Such entries were picked first, then a sample of the others. The call rests on the fitted dose curve; in most records, active means well fitted activation curve with a large enough effect; inconclusive means small, poorly fitted or top-dose-only effect; inactive means no such curve, though single readings can be large or run the other way. Potencies of inconclusive entries are left out as doubtful fits.

assay: A quantitative high throughput screen for small molecules that induce DNA re-replication in MCF 10a normal breast cells.; further: nearly all actives have a fitted effect of over 50% in size; on activity, positive = re-replication: % of control where 0% means no effect; settings: MCF 10A DNA re-replication, Hoechst nuclear intensity, 48 h; activity, positive = re-replication: at 46.1 µM (top of the series)
Potency means the concentration at half of the fitted maximal effect; tags describe the fitted curve by direction and shape.

Q: Which Potency does the source give for `COc1ccc(C(=O)NCCSc2ccccc2)cc1` here?
A: The Potency was inconclusive [activator, single point].

Q: With `CC(=N\NC(=O)c1ccc([N+](=O)[O-])cc1)/C(=N/O)C(=O)Nc1ccccc1` as the compound, how does the Potency read?
A: The Potency was “inactive”.

Q: Which Potency does the source give for `O=[N+]([O-])c1ccc(N/N=C/c2sc(N3CCOCC3)nc2-c2ccccc2)c(S(=O)(=O)Nc2ccc(Cl)cc2)c1` here?
A: Its Potency is inconclusive [activator, single point].

Q: For `COc1cc(/C=C2\SC(=Nc3ccc(Cl)c(C(=O)O)c3)NC2=O)c(Br)c(Br)c1O`, which Potency is on record?
A: The Potency was inconclusive [activator, partial curve, poor fit].

Q: Which Potency does the source give for `CCOC(=O)c1c(C)c(C(=O)Nc2ccc(N(C)C)cc2)c(C)n1CC` here?
A: Its Potency is active: 6.51 µM.

Q: For `CCCCN(C(=O)c1cccs1)C1CCS(=O)(=O)C1` (centres undefined), which Potency is on record?
A: The Potency was “inactive”.

Q: Which Potency does the source give for `COc1ccc(/C(O)=C/c2nc3ccccc3n(-c3ccccc3)c2=O)cc1` here?
A: The Potency was active: 8.2 µM.

Q: Which Potency does the source give for `Cc1ccc2nc(/C(C#N)=C\c3ccc([N+](=O)[O-])o3)[nH]c2c1` here?
A: Its Potency is active: 9.2 µM.

Q: For `CC1(C)OC2OC3C(CN)OC(c4ccccc4)OC3C2O1` (centres undefined), which Potency is on record?
A: The Potency was “inactive”.

Q: With `CC1CCCCN1S(=O)(=O)c1ccc(C(=O)Nc2nnc(-c3ccccn3)o2)cc1` (centres undefined) as the compound, how does the Potency read?
A: The Potency was inconclusive [activator, single point].

Q: With `COc1ccc(NC(=O)CC2SC(=NCc3ccccc3OC)NC2=O)cc1` (centres undefined) as the compound, how does the Potency read?
A: The Potency was inconclusive [activator, single point].

Q: Which Potency does the source give for `C=CC(=O)NC(NC(=O)C=C)c1ccccc1F` here?
A: The Potency was inconclusive [activator, partial curve, poor fit].

Q: With `C=CCn1c(SCc2c(C)noc2C)nc2sc(C)c(C)c2c1=O` as the compound, how does the Potency read?
A: The Potency was active: 23.1 µM.

Q: For `Nc1nc(N)nc(-c2cc(Cl)ccc2Cl)n1`, which Potency is on record?
A: Its Potency is inconclusive [activator, single point].

Q: Which Potency does the source give for `COc1ccc2[nH]c(C(=O)N3CCN(Cc4ccccc4)CC3)cc2c1OC` here?
A: The Potency was inconclusive [activator, partial curve, poor fit].

Q: Which activity, positive = re-replication does the source give for `C=CCN1C(=O)C(C)(C)N(C(C)=O)c2ccccc21` here?
A: Its activity, positive = re-replication is inconclusive: 28.1% [activator].

Q: For `Cc1cc(C)n(-c2nnc(Cl)c3ccccc23)n1`, which Potency is on record?
A: The Potency was inconclusive [activator, single point].

Q: For `Oc1ccc2ccccc2c1C=NNc1ccccn1`, which Potency is on record?
A: The Potency was inconclusive [activator, single point].

Q: Which Potency does the source give for `CCN(c1ccccc1)S(=O)(=O)c1ccc(C(=O)NC2CCN(Cc3ccccc3)CC2)cc1` here?
A: The Potency was inconclusive [activator, single point].
